A collection of fitness landscapes (doi:10.1126/science.1257360)
This is one part of the list.

B1: PhoQ; a variant is named by its letters at X, in order, P23837 (parent)
chain: MKKLLRLFFPLSLRVRFLLATAAVVLVLSLAYGMVALIGYSVSFDKTTFRLLRGESNLFYTLAKWENNKLHVELPENIDKQSPTMTLIYDENGQLLWAQRDVPWLMKMIQPDWLKSNGFHEIEADVNDTSLLLSGDHSIQQQLQEVREDDDDAEMTHSVAVNVYPATSRMPKLTIVVVDTIPVELKSSYMVWSWFIYVLSANLLLVIPLLWVAAWWSLRPIEALAKEVRELEEHNRELLNPATTRELTSLVRNLNRLLKSERERYDKYRTTLTDLTHSLKTPLXXLQXXLRSLRSEKMSVSDAEPVMLEQISRISQQIGYYLHRASMRGGTLLSRELHPVAPLLDNLTSALNKVYQRKGVNISLDISPEISFVGEQNDFVEVMGNVLDNACKYCLEFVEISARQTDEHLYIVVEDDGPGIPLSKREVIFDRGQRVDTLRPGQGVGLAVAREITEQYEGKIVAGESMLGGARMEVIFGRQHSAPKDE

Variants of: B1
Experiment: enrichment ratio after two sorts for PhoP signalling (ratio (wild type AVST 3.29)); higher = more functional
Conditions: with PhoP (E. coli)

Point of comparison: SLVS, enrichment ratio 1.29. Against it:
- PHHH — lower, ≤ 0.25
- KFND — lower, ≤ 0.25
- KNKT — lower, ≤ 0.25
- RKCC — lower, ≤ 0.25
- LRKH — lower, ≤ 0.25
- YMYD — lower, ≤ 0.25
- DLKN — lower, ≤ 0.25
- VWKC — lower, ≤ 0.25
- KPFF — lower, ≤ 0.25
- FTWQ — lower, ≤ 0.25
- PYRL — lower, ≤ 0.25
- MLHS — lower, ≤ 0.25
- EELC — lower, ≤ 0.25
- SIGH — higher, 5.91
- SMGI — higher, 7.04
- EGSA — lower, ≤ 0.25
- DRPK — lower, ≤ 0.25
- EHTS — lower, ≤ 0.25
- NDRT — lower, ≤ 0.25
- VWSS — lower, ≤ 0.25
- VHHY — lower, ≤ 0.25
- RSGQ — lower, ≤ 0.25
- SIST — higher, 9.25
- VDIA — lower, ≤ 0.25
- GQRH — lower, ≤ 0.25
- FFYV — lower, ≤ 0.25
- ITRR — lower, ≤ 0.25
- PIRY — lower, ≤ 0.25
- QFAQ — lower, ≤ 0.25
- FYCE — lower, ≤ 0.25
- AQNF — higher, 1.47
- VNPR — lower, ≤ 0.25
- QHPQ — lower, ≤ 0.25
- GHTK — lower, ≤ 0.25
- FHRG — lower, ≤ 0.25
- WDFC — lower, ≤ 0.25
- NAHG — lower, ≤ 0.25
- HLTA — lower, ≤ 0.25
- AAAA — lower, ≤ 0.25
- DHWT — lower, ≤ 0.25
- PYQA — lower, ≤ 0.25
- ICSI — lower, ≤ 0.25
- DRHS — lower, ≤ 0.25
- TQEF — lower, ≤ 0.25
- NFWD — lower, ≤ 0.25
- EANK — lower, ≤ 0.25
- KPST — lower, ≤ 0.25
- LHPM — lower, ≤ 0.25
- ETPV — lower, ≤ 0.25
- PDVM — lower, ≤ 0.25
- CHLR — lower, ≤ 0.25
- VLQP — lower, ≤ 0.25
- GLQR — lower, ≤ 0.25
- VEFN — lower, ≤ 0.25
- QGQS — lower, ≤ 0.25
- AMGL — higher, 2.85
- HMGS — lower, ≤ 0.25
- WKRY — lower, ≤ 0.25
- YYKT — lower, ≤ 0.25
- HQHF — lower, ≤ 0.25
- PNRL — lower, ≤ 0.25
- PYLS — lower, ≤ 0.25
- RWPC — lower, ≤ 0.25
- SAET — lower, ≤ 0.25
- AGCL — higher, 15.2
- QYPN — lower, ≤ 0.25
- DPLC — lower, ≤ 0.25
- NHNQ — lower, ≤ 0.25
- HRTL — lower, ≤ 0.25
- SHFT — lower, ≤ 0.25
- WGQL — lower, ≤ 0.25
- SEDY — lower, ≤ 0.25
- DSVI — lower, ≤ 0.25
- VLLA — lower, ≤ 0.25
- PYWT — lower, ≤ 0.25
- RTEY — lower, ≤ 0.25
- WGTR — lower, ≤ 0.25
- WLPW — lower, ≤ 0.25
- SLRC — lower, 0.977
- TYFH — lower, ≤ 0.25
- EITD — lower, ≤ 0.25
- KIWA — lower, ≤ 0.25
- FDIQ — lower, ≤ 0.25
- DVFH — lower, ≤ 0.25
- TDPN — lower, ≤ 0.25
- LNNA — lower, ≤ 0.25
- EYQC — lower, ≤ 0.25
- SFGK — lower, ≤ 0.25
- TMYV — lower, ≤ 0.25
- PPAS — lower, ≤ 0.25
- FWPP — lower, ≤ 0.25
- YNPF — lower, ≤ 0.25
- QPYD — lower, ≤ 0.25
- MFWF — lower, ≤ 0.25
- TSNN — higher, 12.2
- ALAW — higher, 5.81
- GPPW — lower, ≤ 0.25
- RHDP — lower, ≤ 0.25
- VEMD — lower, ≤ 0.25
- MMWS — lower, ≤ 0.25
- GFKG — lower, ≤ 0.25
- IHRT — lower, ≤ 0.25
- SEHE — lower, ≤ 0.25
- AMAT — higher, 3.36
- GSHD — lower, ≤ 0.25
- TPYY — lower, ≤ 0.25
- VIRC — lower, ≤ 0.25
- PENP — lower, ≤ 0.25
- PSEI — lower, ≤ 0.25
- TETE — higher, 18.8
- GIWR — lower, ≤ 0.25
- WYLN — lower, ≤ 0.25
- RSER — lower, ≤ 0.25
- DYSC — lower, ≤ 0.25
- YQCT — lower, ≤ 0.25
- NGRT — lower, ≤ 0.25
- KHNC — lower, ≤ 0.25
- SCPM — higher, 7.6
- FKSE — lower, ≤ 0.25
- ALRI — lower, ≤ 0.25
- DSPS — lower, ≤ 0.25
- FHGN — lower, ≤ 0.25
- TRDC — lower, ≤ 0.25
- VMVE — lower, ≤ 0.25
- RVMY — lower, ≤ 0.25
- RRKT — lower, ≤ 0.25
- QKDF — lower, ≤ 0.25
- SQGI — higher, 2.38
- KAHE — lower, ≤ 0.25
- MAKQ — lower, ≤ 0.25
- HIGM — lower, ≤ 0.25
- NFHV — lower, ≤ 0.25
- ATVA — lower, 1.05
- DAVM — lower, ≤ 0.25
- EDFW — lower, ≤ 0.25
- FNHL — lower, ≤ 0.25
- NPQH — lower, ≤ 0.25
- VLFK — lower, ≤ 0.25
- MGFC — higher, 14.4
- WNKA — lower, ≤ 0.25
- TQIT — lower, ≤ 0.25
- YCCC — lower, 0.444
- WTCL — lower, ≤ 0.25
- RPTQ — lower, ≤ 0.25
- VSGI — lower, ≤ 0.25
- EGHC — lower, ≤ 0.25
- KQED — lower, ≤ 0.25
- FCWG — lower, ≤ 0.25
- VRLR — lower, 0.319
- DSGR — lower, ≤ 0.25
- RLTV — lower, ≤ 0.25
- PNPK — lower, ≤ 0.25
- RHLP — lower, ≤ 0.25
- GQVK — lower, ≤ 0.25
- WDLS — lower, ≤ 0.25
- WAGR — lower, ≤ 0.25
- FRHE — lower, ≤ 0.25
- TTNH — higher, 12.2
- ENCT — lower, ≤ 0.25
- PEWP — lower, ≤ 0.25
- TMGG — higher, 15.7
- NEQD — lower, ≤ 0.25
- RDVY — lower, ≤ 0.25
- TCQT — higher, 3.19
- PSSD — lower, ≤ 0.25
- RTNI — lower, ≤ 0.25
- FCIS — lower, ≤ 0.25
- AECG — lower, ≤ 0.25
- WGNS — lower, ≤ 0.25
- TTET — lower, ≤ 0.25
- PERM — lower, ≤ 0.25
- QCGT — lower, ≤ 0.25
- VQVR — lower, ≤ 0.25
- TDEL — lower, ≤ 0.25
- KVWN — lower, ≤ 0.25
- IFHM — lower, ≤ 0.25
- FITH — lower, ≤ 0.25
- FHHG — lower, ≤ 0.25
- THLD — the same, 1.29
- YFMS — lower, ≤ 0.25
- VMKD — lower, ≤ 0.25
- HYNI — lower, ≤ 0.25
- QQLA — lower, ≤ 0.25
- HFMG — lower, ≤ 0.25
- CSCL — higher, 16.1
- VMTK — lower, ≤ 0.25
- QKCL — lower, ≤ 0.25
- HYMY — higher, 2.85
- TQQD — higher, 4.47
- TVFR — lower, ≤ 0.25
- RCHP — lower, ≤ 0.25
- AHTG — lower, ≤ 0.25
- LDLW — lower, ≤ 0.25
- WIVG — lower, ≤ 0.25
- PNHR — lower, ≤ 0.25
- TYWG — lower, ≤ 0.25
- GIVW — lower, ≤ 0.25
- WSPY — lower, ≤ 0.25
- YDYG — lower, ≤ 0.25
- PKPM — lower, ≤ 0.25
- GNCY — higher, 4.37
- QFRD — lower, ≤ 0.25
- GMMM — lower, ≤ 0.25
- IPTR — lower, ≤ 0.25
- VFWM — lower, ≤ 0.25
- RACH — lower, ≤ 0.25
- RLVH — lower, ≤ 0.25
- DFIA — lower, ≤ 0.25
- NFWY — lower, ≤ 0.25
- PPFE — lower, ≤ 0.25
- NEFH — lower, ≤ 0.25
- DFVA — lower, ≤ 0.25
- QSKC — lower, ≤ 0.25
- QPYI — lower, ≤ 0.25
- SSKP — lower, ≤ 0.25
- IDWR — lower, ≤ 0.25
- MDIH — lower, ≤ 0.25
- IWKG — lower, ≤ 0.25
- RDIH — lower, ≤ 0.25
- PHCW — lower, ≤ 0.25
- AKIL — higher, 18.4
- NKTH — lower, ≤ 0.25
- GIFI — lower, ≤ 0.25
- LMGE — lower, ≤ 0.25
- KDCI — lower, ≤ 0.25
- FKCG — lower, ≤ 0.25
- NNMT — lower, ≤ 0.25
- VLYV — lower, ≤ 0.25
- ERHW — lower, ≤ 0.25
- WDDP — lower, ≤ 0.25
- WVWT — lower, ≤ 0.25
- VRWE — lower, ≤ 0.25
- SMCL — higher, 16.6
- SYYH — lower, ≤ 0.25
- HNHH — lower, ≤ 0.25
- NLRD — lower, ≤ 0.25
- RHIH — lower, ≤ 0.25
- NNVV — lower, ≤ 0.25
- RAMV — lower, ≤ 0.25
- MVLH — lower, ≤ 0.25
- TDTC — higher, 10.7
- IQCR — lower, ≤ 0.25
- FMDH — lower, ≤ 0.25
- MICR — lower, ≤ 0.25
- LHHW — lower, ≤ 0.25
- VVRE — lower, ≤ 0.25
- FWSG — lower, ≤ 0.25
- VVRL — lower, ≤ 0.25
- HGFD — lower, ≤ 0.25
- GGMF — lower, ≤ 0.25
- TKYI — higher, 2.52
- YGNC — lower, ≤ 0.25
- PIRT — lower, ≤ 0.25
- VNNG — lower, ≤ 0.25
- WRWG — lower, ≤ 0.25
- TPVT — lower, ≤ 0.25
- GTVY — lower, ≤ 0.25
- DDMT — lower, ≤ 0.25
- WTTD — lower, ≤ 0.25
- LDVL — lower, ≤ 0.25
- KGHD — lower, ≤ 0.25
- LWRV — lower, ≤ 0.25
- YWPN — lower, ≤ 0.25
- PTMQ — lower, ≤ 0.25
- RKLN — lower, ≤ 0.25
- ISCD — lower, ≤ 0.25
- GQAY — lower, ≤ 0.25
- SSWR — lower, ≤ 0.25
- SMAV — higher, 5.92
- AGDL — lower, ≤ 0.25
- TNWF — the same, 1.29
- IEVL — lower, ≤ 0.25
- YEVN — lower, ≤ 0.25
- SSKR — lower, ≤ 0.25
- TPIY — lower, ≤ 0.25
- EALG — lower, ≤ 0.25
- WVQP — lower, ≤ 0.25
- WLWW — lower, ≤ 0.25
- IATY — lower, ≤ 0.25
- PVDY — lower, ≤ 0.25
- DIGS — lower, ≤ 0.25
- FDRV — lower, ≤ 0.25
- KLDR — lower, ≤ 0.25
- ELMF — lower, ≤ 0.25
- NYQC — lower, ≤ 0.25
- PPCT — lower, ≤ 0.25
- QRLI — lower, ≤ 0.25
- FQLV — higher, 2.7
- QLMK — lower, ≤ 0.25
- RSSQ — lower, ≤ 0.25
- PCNP — lower, ≤ 0.25
- EELP — lower, ≤ 0.25
- GYLA — lower, ≤ 0.25
- VWLG — lower, ≤ 0.25
- FVAD — lower, ≤ 0.25
- FLPE — lower, ≤ 0.25
- ALKF — lower, ≤ 0.25
- TYGN — lower, ≤ 0.25
- MQSK — lower, ≤ 0.25
- VAVV — lower, ≤ 0.25
- FNVK — lower, ≤ 0.25
- WHHV — lower, ≤ 0.25
- DPWQ — lower, ≤ 0.25
- WGTW — lower, ≤ 0.25
- TASY — higher, 10.9
